Measured values reported in the antibiotic and cytotoxicity screens of Wong et al. (2023).
The list shows a part of the results.

Assays:
HSkMC = human skeletal muscle cells; experiment: cytotoxicity call (relative viability < 0.9); details: 10 µM
S. aureus RN4220 = experiment: growth inhibition call (relative growth <= 0.2); details: 50 µM

| SMILES | cytotoxicity call (HSkMC) | growth inhibition call (S. aureus RN4220) |
| --- | --- | --- |
| N[C@@H](Cn1ccnc1)c1ccccc1 | inactive | inactive |
| O=C(Nc1ccccc1)c1ccccc1 | inactive | inactive |
| C[C@H](CO)N1C[C@H](C)[C@H](CN(C)C(=O)Nc2ccc3c(c2)OCO3)Oc2ccc(NC(=O)Nc3cccc4ccccc34)cc2C1=O | inactive | inactive |
| C[C@H](CO)N1C[C@H](C)[C@@H](CN(C)C(=O)C2CCOCC2)Oc2cc(C#Cc3ccncc3)ccc2S1(=O)=O | inactive | inactive |
| COc1ccccc1S(=O)(=O)N(C)C[C@@H]1Oc2cc(C#CCC(C)C)ccc2S(=O)(=O)N([C@@H](C)CO)C[C@H]1C | inactive | inactive |
| C[C@H]1CCCCO[C@@H](CN(C)C(=O)Nc2ccc(C(F)(F)F)cc2)[C@@H](C)CN([C@@H](C)CO)C(=O)c2cc(NS(=O)(=O)c3cccs3)ccc2O1 | inactive | inactive |
| CCS(=O)(=O)Nc1ccc2c(c1)C(=O)N(C)[C@@H]1CC[C@H](CC(=O)N3CCN(C)CC3)O[C@@H]1CO2 | inactive | inactive |
| CC(C)CN1C[C@H](C(=O)O)CC1=O | inactive | inactive |
| CCOC(=O)/C=C(C)/C=C/C=C(C)/C=C/c1c(C)cc(OC)c(C)c1C | inactive | inactive |
| COC(=O)[C@@H]1C[C@H](C#N)N[C@@H]1c1ccccn1 | inactive | inactive |
| COCCNC(=O)C[C@H]1C[C@@H]2c3cc(NC(=O)Nc4ccc(C(F)(F)F)cc4)ccc3O[C@@H]2[C@H](CO)O1 | inactive | inactive |
| COC(=O)[C@@H]1N2C(=O)[C@@H](N3C[C@](C)(OC)O[C@@H](Cc4ccccc4)[C@H]3/C=C/C3CC3)[C@H]2SC1(C)C | inactive | inactive |
